Nonsense suppression data for 27 variants are collected here from the RNAGym collection of RNA variant scans (doi:10.1101/gad.245936.114).

B1: tRNA (parent)
chain: CUCUCGGUAGCCAAGUUGGUUUAAGGCGCAAGACUUUAAUUUAUCACUACGAAAUCUUGAGAUCGGGCGUUCGACUCGCCCCCGGGAGAUUUUUUCCUCGAGCAA

Variants at the background level are over-represented here.

The variants in the series derive from B1. In words: nonsense suppression (GFP-seq) (ratio to wild type); higher = more function; SUP4oc tRNA, yeast GFP reporter sort-seq. Summed up:
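Nonsense suppression (GFPSEQ) is the median GFP/RFP ratio of each sorting bin, weighted by the variant's estimated share of cells in that bin and expressed relative to the unmutated parent tRNA. Yeast strains carried genome-integrated variants of an ochre-suppressor tRNA from a library with ~3% random mutations, plus a galactose-driven GFP ochre reporter and RFP, and were grown in raffinose/galactose medium containing 80 mg/L adenine. Cells were sorted into GFP/RFP bins, each bin was Illumina-sequenced (phred ≥30), and variants were kept only with ≥100 reads and ≥30 cells.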
Consider CUCUCGGUCGCCAAGUUGGUUUAAUGCGCAAGACUUUAAUUUAUCACUACGAAAUCUUGAGAUCGGGCGUUCGACUCGCCCCCGGGAGAUUUUUUCCUCGAGCAA [A9C G25U], for which the nonsense suppression is not above 0.026.
To CUCUCGGUAGCCAAGUUGGUUUAAGGCGCAAGACUUUAAUUUAUCACUACGAAAUCUUGAGAUCGGGCGUUCGACUGGACCCCGGGAGAUUUUUUCCUCGAGCAA [C77G C79A] belongs not above 0.026; to CUCUCGGUAGCCAAGUUGGUUUAAGGCGCAAGACUUUAAUUUAUCACUACGAAAUCAUGAGAUCGGGCGUCCGACUCGCCCCCGGGAGAUUUUUUCCUCGAGCAA [U57A U71C], not above 0.026; to CUCUCGGUAGCCAAGUUGGUUUAUGGCGCGAGACUUUAAUUUAUCACUACGAAAUCUUGAGAUCGGGCGUUCGACUCGCACCCGGGAGAUUUUUUCCUCGAGCAA [A24U A30G C80A], not above 0.026.
To CUCUCGGUAGCCAAGUUGGUUUAAGGCACAAGACUUUAAUUUAUCACUACGAAAUCGUGAGAUCGGGCGUUCGACUCGCUCCCGGGAGAUUUUUUCCUCGAGCAA [G28A U57G C80U] belongs not above 0.026; to CUCUCGGUAGCCAGGUUGGAUUAAGGCGCAAGACUUUAAUUUAUCACUACGAAAUCUUGAGAUCGGGAGUUCGACUCGCCCCCGGGAGAUUUUUUCCUCGAGCAA [A14G U20A C68A], not above 0.026; to CGCUCGGUAGCCAAGUUGGUUUAAGGCGCAAGAAUUUAAUUUAUCACUACGAAAUCUUGAGGUCGGGCGUUCGACUCGCCCCCGGGAGAUUUUUUCCUCGAGCAA [U2G C34A A62G], not above 0.026.
To CUCUCGGUAGCCAAGUUGGUUUAAGGGGCAAGACUUUAAUUUAUCACUACGAAAUCAUGAGAUCGGGCGUUCGACUCGCCCCCUGGAGAUUUUUUCCUCGAGCAA [C27G U57A G84U] belongs not above 0.026; to CUCCCGGUGGCCAAGUUGGUUGAAGGCGCAAGACUUUAAUUUAUCACUACGAAAUCUUGAGAUCGGGCGUUCGACUCGCCCCCGGGAGAUUUUUUCCUCGAGCAA [U4C A9G U22G], 0.202; to CUCUCGGUAGUCAAGUUGGUGUAAGGCGCAAGACUUUAAUUUAUCACUACGAAAUCUUUAGAUCGGGCGUUCGACUCGCCCCCGGGAGAUUUUUUCCUCGAGCAA [C11U U21G G59U], not above 0.026.
For the variant CUCUCCGUAGCCAAGUUGGUUUCAGGCGCAUGACUUUAAUUUAUCACUACGAAAUCAUGAGAUCGGGCGUUCGACUCGCGCCCGGGAGAUUUUUUCCUCGAGCAA [G6C A23C A31U U57A C80G], the nonsense suppression is not above 0.026.
Under CUCCCGGUAGCCUAGUUGGUUUAAGGCGCAAGACUUUAAUUUAUCACUACGAAAUCUUGAGAUCGGGCGUUCGACUCACCCCCGGGAGAUUUUUUCCUCGAGCAA [U4C A13U G78A] stands 0.424; under CUCUCGGUAGCCAAGUUGGUUUAAGGCGCAAGACUUUAAUUUAUCACUACGAAUCCUUGGGAUCGGGCGUUCGACUCGCCCCCGGGAGAUUUUUUCCUCGAGCAA [A54U U55C A60G], not above 0.026; under CUCUCGGUAGCCAAGUUGGUUUAAAGCGCAAGACUUUAAUUUAUCACUACGAAAUCUUGAGAUCGGGCGUUCGACUCGCCCCAGGGAGAUUUUUUCCUCGAGCAA [G25A C83A], not above 0.026.
To CUCUCGGUAGCCAAGUUGAUUUAAGGCGCAAGACUUUAAUUUAUCACUACGAAAUCUUGGGAUCGGGCGUUCGACUCGCCCCCGGGAGAUUUUUUCCUCGAGCAA [G19A A60G] belongs not above 0.026; to CUCUCGGUAGCCAAGUUGGCUUAAGGCGCAAGACUUUAAUUUAUCACUACGAAAUCUUGAGACCGGGCGUUCGACUCGCCCCCGGGAGAUUUUUUCCUCGAGCAA [U20C U63C], not above 0.026; to CCCUCGGUAGCCAAGUUGGUUUAAGGCGCAAGACUUUAAUUUAUCACUACGAAAUCUUGAGAUCGGGAGUUCGACUCGCCCCCGGGAGAUUUUUUCCUCGAGCAA [U2C C68A], not above 0.026.
Consider CUCUUGGUAGCCAAGUUGGUUUAAGGCGCAAGACUUUAAUUUAUCACUACGAAAUCUUGAGAUCGGGCGUUCGACUCGACCCCGGGAGAUUUUUUCCUCGAGCAA [C5U C79A], for which the nonsense suppression was not above 0.026.
As to CUCUCGGUAGCCAAGUUGGUUUAAGGCGCAAGACGUUAAUUUAUCACUACGAAAUCUUGAGAUCGGGCGUUCGACUCGCCCCCGGGAGAUUUUUUCCUCGAGCAA [U35G], the nonsense suppression is not above 0.026.
Regarding CUCUCGGUAGCCAAGUUGGUGUAAGGCGCAAGACUUUAAUUUAUCACUACGAAAUCUUGAGAUCGGGCGUUCGACUCGCCCCCGGGACAUUUUUUCCUCGAGCAA [U21G G88C], the nonsense suppression is not above 0.026.
To CUCUCGGUAGCCAACUCGGUUUAAGGCGCAAGACUUUAAUUUAUCACUACGAAAUCUUGAGAGCCGGCGUUCGACGCGCCCCCGGGAGAUUUUUUCCUCGAGCAA [G15C U17C U63G G65C U76G] belongs not above 0.026; to CUCUCGGUAGCCAAGUUGGUUUAAGGCGCAAGACUUUAAUUUAUCACUACGAAAUCUUGUGAUCGGGCGUUCGACUCGGCCCCGGGAGAUUUUUUCCUCGAGCAA [A60U C79G], not above 0.026.
To CUCUCGGUAGCCAAGUGGGUGUAAGGCGCAAGACUUUAAUUUAUCACUACGAAAACUUGAGAUCGGGCGUUCGACUCGCCCCCGGGAGAUUUUUUCCUCGAGCAA [U17G U21G U55A] belongs not above 0.026; to CUCUCGGUAGCCAAGUUGUUGUAAGGCGCAAGACUUUAAUUUAUCACUACGAAAUCUUGAGAUCGGGCGUUCGACUCGCCCCCGGGAGAUUUUUUCCUCGAGCAA [G19U U21G], not above 0.026; to CACUCGGUAGCCAAGUUGGUUUAAGGCGCAAGACUUUAAUUUAUCACUACGAAAUCUUGAGAUCGGGCGUUCGGCUCGCCCCCGAGAGAUUUUUUCCUCGAGCAA [U2A A74G G85A], not above 0.026.
To CUCUCAUUAGCCAAGUUGGUUUAAGGGGCAAGACUUUAAUUUAUCACUACGAAAUCUUGAGAUCGGGCGUUCGACUCGCCCCCGGGAUAUUUUUUCCUCGAGCAA [G6A G7U C27G G88U] belongs not above 0.026; to CUCUCGGUAGCCCAGUUGGUUUAAGGCGCAAGACUUUAAUUUAUCACUACGAAAUCUUGAGAUCGGGCGUUCGACUCGCCGCCGGGAGAUUUUUUCCUCGAGCAA [A13C C81G], not above 0.026.
